Data as given in paper PMC6919601, “Identification of Plasmodium dipeptidyl aminopeptidase allosteric inhibitors by high throughput screening” (PLoS ONE, 2019).
Among all 110,000 compounds or so, about 230 (0.21%) showed an effect of 50% or more. Some of the results follow.

Molecular target: DPAP1 (Plasmodium falciparum, UniProt Q8IIJ9)
Test: primary screen, percent inhibition; read by cleavage of a fluorogenic dipeptide substrate; higher = more effect of the substance
Set-up: species or system P. falciparum D10 trophozoite lysates; single well
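Further: 30 min substrate incubation versus DMSO and 10 µM JCP410 controls.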

Sequence of DPAP1 (Q8IIJ9 whole entry, looked up): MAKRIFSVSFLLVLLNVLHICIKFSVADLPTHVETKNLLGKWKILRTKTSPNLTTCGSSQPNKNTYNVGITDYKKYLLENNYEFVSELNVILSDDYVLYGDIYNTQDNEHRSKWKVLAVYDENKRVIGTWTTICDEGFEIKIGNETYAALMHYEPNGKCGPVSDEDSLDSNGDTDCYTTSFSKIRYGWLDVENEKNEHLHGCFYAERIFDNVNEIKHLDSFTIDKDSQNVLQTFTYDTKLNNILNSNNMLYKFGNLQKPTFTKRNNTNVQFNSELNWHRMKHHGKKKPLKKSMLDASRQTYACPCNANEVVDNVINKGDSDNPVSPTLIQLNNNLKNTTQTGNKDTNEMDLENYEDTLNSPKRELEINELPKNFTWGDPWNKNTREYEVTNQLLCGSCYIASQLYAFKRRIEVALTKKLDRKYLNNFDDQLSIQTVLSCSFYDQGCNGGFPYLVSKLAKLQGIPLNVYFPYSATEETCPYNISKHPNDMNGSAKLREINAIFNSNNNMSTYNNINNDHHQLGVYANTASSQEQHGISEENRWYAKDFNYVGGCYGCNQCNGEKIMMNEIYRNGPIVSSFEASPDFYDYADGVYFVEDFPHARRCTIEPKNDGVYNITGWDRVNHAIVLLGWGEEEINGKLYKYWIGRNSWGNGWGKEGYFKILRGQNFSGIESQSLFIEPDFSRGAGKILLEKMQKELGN

Row | SMILES | % Inhibition @ 10 uM [%]
1 | Cc1ccc(CNC(=O)CN(C)S(=O)(=O)c2cccc3cccnc23)cc1 | -6.07
2 | Cc1ccc(OCC(=O)NCc2cccnc2)cc1 | -6.67
3 | COc1ccc2nc3sc(C(=O)N4CCC5(CC4)OCCO5)cc3cc2c1 | -4.16
4 | Clc1cc2c(c3ncccc13)OCN(Cc1ccco1)C2 | 2.54
5 | CCOC(=O)C1=C(N)OC2=C(C(=O)CC(C)(C)C2)C1c1ccc(OCc2ccccc2)cc1 (stereo not shown) | -0.142
6 | Cc1ccc([S+](O)Nc2cccc(C(=O)O)c2)cc1 (stereo not shown) | -3.09
7 | O=C(CN1C(=O)c2ccccc2C1=O)NCc1ccccc1C(F)(F)F | 1.88
8 | COc1ccc(-c2nc3ncccn3c2NC2CCCC2)cc1 | 2.28
9 | CC1CCCC(N2CCN(C(=O)c3ccc(F)cc3)CC2)C1 (stereo not shown) | 0.147
10 | O=C(COc1ccccc1)Nc1nnc(S(=O)(=O)N2CCCCC2)s1 | -5.37
11 | CCOc1ccccc1NC(=O)CN(c1ccccc1F)S(=O)(=O)c1ccccc1 | 1.89
12 | O=C1CCCCC1CN(Cc1ccccc1)Cc1ccccc1 (stereo not shown) | -0.807
13 | Cc1nc2sc(C(c3ccc(Br)cc3)N3CCN(CCO)CC3)c(O)n2n1 (stereo not shown) | -1.03
14 | O=c1c2oc3ccccc3c2ncn1Cc1cccc(F)c1 | 7.84
15 | COc1ccc(-c2csc(-c3cc4cc(Cl)cc(Cl)c4oc3=O)n2)cc1 | -2.42
16 | CCCc1nnc(NC(=O)CN2C(=O)c3ccccc3S2(=O)=O)s1 | 7.85
17 | Cc1occc1C(=O)NCCCCNC(=O)c1ccoc1C | 2.93
18 | CCOc1cc(C=C2C(=O)OC(C)(c3ccccc3)OC2=O)ccc1O (stereo not shown) | -1.47
19 | CCOc1ccc2nc(NC(=O)CSc3nc(C)c(CC(C)C)[nH]3)sc2c1 | 4.31
20 | COc1ccccc1-c1cc2nc(C)c(CCC(=O)Nc3cccnc3)c(C)n2n1 | -0.465
21 | CCC(C(=O)Nc1cccc(NC(C)=O)c1)c1ccccc1 (stereo not shown) | 0.512
22 | COc1ccccc1CC(C)NCCC1CCCN1C (stereo not shown) | -3.8
23 | CC1CC2=C(CC1CNCCCN(C)C)C(C)(C)CCC2 (stereo not shown) | -0.13
24 | CC(C)n1c(C(O)c2cccc3ccccc23)nc2ccccc21 (stereo not shown) | -2.27
25 | CC1CCN(S(=O)(=O)c2ccc(NC(=O)C3c4ccccc4Oc4ccccc43)cc2)CC1 | -4.6

Row | SMILES | % Inhibition @ 10 uM [%]
26 | CCC(C)NC(=O)CN(c1cc(C)ccc1OC)S(=O)(=O)c1ccccc1 (stereo not shown) | -3.37
27 | CCOC(=O)N1CCC(N2C[C@@H]3C[C@H](C2)c2cccc(=O)n2C3)CC1 | 1.54
28 | CC1(C)CC(=O)C2=C(C1)OC(N)=C(C#N)C2c1ccc(COc2cccc(Br)c2)o1 (stereo not shown) | 4.75
29 | COc1ccc(CCNC(=O)CC2Sc3ccc(C(F)(F)F)cc3NC2=O)cc1OC (stereo not shown) | 3.5
30 | CCN(CC)CCNC(=O)Cn1ccc2ccccc2c1=O | 1.91
31 | O=C(COc1ccc(Cl)cc1Cl)N1CCOCC1 | -0.999
32 | Cc1ccc(C(=O)Nc2ccc(S(=O)(=O)NC(C)C)cc2)cc1Br | 5.07
33 | CC1(C)CC2=Nc3ccccc3SC2=C(O)C1 | -11.6
34 | CCCCOc1ccc(C2NC(=O)NC(C)=C2C(C)=O)cc1OCC (stereo not shown) | -0.968
35 | CC1CCc2c(sc(NC(=O)COc3ccccc3)c2C(N)=O)C1 (stereo not shown) | 9.91
36 | O=C(c1ccc2c(c1)OCO2)c1cc2ccc(O)cc2oc1=O | 0.44
37 | CCOC(=O)C1=C(N)OC2=C(C(=O)CCC2)C1c1cccs1 (stereo not shown) | -8.44
38 | C#CCOc1nc2c(c(=O)n(Cc3ccc(Cl)c(Cl)c3)c(=O)n2C)n1C | 0.0645
39 | CC(C)(C)OC(=O)N1CCN(C(=O)c2sc3cc(Cl)ccc3c2Cl)CC1 | 2.68
40 | O=C1OC(c2ccc(Cl)cc2Cl)=N/C1=C\c1cccs1 | -5.79
41 | Cc1ccc2nc3c(O)n(CC(=O)N4CCOCC4)ncc-3c2c1 | -5.75
42 | O=C(NC1CCCc2ccccc21)c1ccc(CS(=O)(=O)c2ccc(Br)cc2)o1 (stereo not shown) | -4.53
43 | CCOc1ccc2nc(N3CCC(C(=O)NCCC4=CCCCC4)CC3)sc2c1 | 3.4
44 | N#C/C(=C\c1ccc(SCc2ccc(Cl)cc2)o1)C(=O)NCc1ccco1 | -0.0115
45 | CC(=O)Nc1ccc(N2C(=O)C(O)=C(C(=O)c3ccc(Cl)cc3)C2c2ccc(F)cc2)cc1 (stereo not shown) | -3.43
46 | Cc1ccc2c(c1)C1(C(=O)N2)N2CC3(C)CN1CC(C)(C2)C3=O (stereo not shown) | -1.42
47 | Cc1cc(/C=C2/C(=N)N3C(=NC2=O)SN=C3S(C)(=O)=O)c(C)n1-c1cccc2ccccc12 | 3.48
48 | Cc1ccc(/C(O)=C/c2nc3ccccc3nc2O)cc1C | 0.738
49 | COc1ccc2[nH]c3c(c2c1)CCc1nonc1-3 | -4.68
50 | CCOc1ccc2nc(NC(=O)C3CCCCC3)sc2c1 | -3.34

Row | SMILES | % Inhibition @ 10 uM [%]
51 | COc1ccc(Cn2c(C(=O)O)c(CNCCc3ccccc3Cl)c3ccccc32)cc1 | 1.17
52 | COCCCN1Cc2cccc(C(N)=O)c2C1=O | 0.708
53 | Cc1ccc(Cn2c3ccccc3c3cnn(CC(=O)NCc4ccccc4)c(=O)c32)cc1 | -3.34
54 | Cc1cccc(C)c1OCc1nc2c3cnn(-c4nc5ccccc5s4)c3ncn2n1 | -4.64
55 | CC(=O)c1cccc(NC(=O)COc2ccc(Cl)cc2C)c1 | 4.22
56 | COc1cc(C2Oc3c(OC)cccc3C3CC(c4cc(Cl)ccc4O)=NN32)ccc1O (stereo not shown) | 1.76
57 | Cc1ccc2nc(-c3ccc(N)cc3)sc2c1S(=O)(=O)O | 0.847
58 | O=C(NC1CC1)c1ccc(CSCc2ccccc2Cl)o1 | -4.97
59 | CCOC(=O)c1cnc(-c2ccccc2)nc1N | -3.94
60 | Cc1ccc(NC(=O)CN(c2cc(Cl)ccc2C)S(C)(=O)=O)c(C)c1 | -1.61
61 | Cc1c(Cl)cccc1NC(=O)C(c1ccccc1)c1ccccc1 | 7.65
62 | COc1ccc(-n2nc(C)c3c2OC(N)=C(C#N)C3c2ccc(C)cc2)cc1 (stereo not shown) | 2.45
63 | CCOc1ccccc1CNC(=O)Cn1nc(C)n2c(cc3cc(F)ccc32)c1=O | -1.7
64 | Cc1ccn2c(NC(=O)c3ccc4c(c3)OCO4)c(-c3ccccc3)nc2c1 | -3.48
65 | COc1ccc(CCN2C(=O)c3ccccc3C2(O)Cc2ccccc2)cc1OC (stereo not shown) | -2.87
66 | Cc1ccc(C2C(C#N)=C(N)N(c3cccnc3)C3=C2C(=O)CC(c2ccccc2)C3)cc1 (stereo not shown) | 6.19
67 | CCc1ccc(S(=O)(=O)c2nnn(-c3ccccc3C(F)(F)F)c2N)cc1 | 0.351
68 | OC1CCN(c2ccc3ccccc3n2)CC1 | -6.22
69 | COc1ccc(C(=O)Nc2ccc(NC(=O)c3ccco3)c(Cl)c2)cc1Br | 10
70 | CCCOC(=O)C1=C(C)NC(=O)NC1c1cccc(Cl)c1Cl (stereo not shown) | -3.14
71 | CN1CCN(C(=O)c2ccc(F)cc2)CC1 | -0.268
72 | Clc1ccc(Cl)c(SCCc2ccccn2)c1 | 2.57
73 | CC(=O)c1c(C)[nH]c(C(=O)NCCc2cccc(C)c2)c1C | -6.06
74 | CC1=Nc2ncnn2C(c2ccc(OC(F)F)cc2)/C1=C(\O)OC1CCCCC1 (stereo not shown) | 4.23
75 | CCN(CCO)Cc1csc2ccc(Cl)cc12 | -0.854

Row | SMILES | % Inhibition @ 10 uM [%]
76 | CC(NC(=O)c1ccc(Br)o1)c1ccccc1 (stereo not shown) | -3.82
77 | C=CCOc1ccc(/C=C2/NC(=O)NC2=O)cc1 | 3.15
78 | CC1(C)CC(=O)C(C(O)c2ccccc2)C(C)(C)N1 (stereo not shown) | -4.01
79 | O=C(Cn1ncc2c1-c1ccccc1OC2)NCCCN1CCC(Cc2ccccc2)CC1 | 4.41
80 | COc1ccc(-c2noc(N3CCC(C(=O)NCc4ccc5c(c4)OCO5)CC3)n2)cc1 | -3.42
81 | COc1ccc(C2CC(=O)C(/C=N/CCN3CCNCC3)=C(O)C2)cc1 (stereo not shown) | 0.673
82 | Cc1ccc(S(=O)(=O)NC(C)C(=O)NCc2ccccc2Cl)cc1 (stereo not shown) | -5.21
83 | CCCCN(C)C(=O)C(C)n1nc(CC)n2c(cc3occc32)c1=O (stereo not shown) | 1.38
84 | CSC1=C(C#N)C(c2ccc(Cl)cc2)C2=C(O)CC(C)(C)CC2=N1 (stereo not shown) | 5.42
85 | O=C(COc1cc(Cl)ccc1Cl)NCc1ccco1 | -6.06
86 | CC(C)Oc1c(-c2ccc(F)cc2)c(=O)c1=O | -1.22
87 | COc1cc(N2C(=O)c3ccccc3C2=O)nc(OC)n1 | 3.61
88 | Cc1c2cnn(CC(=O)N3CCC4(CC3)OCCO4)c(=O)c2c(C)n1Cc1ccccc1 | -2.17
89 | Cc1ccc(C)c(OCC(=O)Nc2ccc(S(=O)(=O)Nc3cc(C)on3)cc2)c1 | 40.8
90 | C=C1CC(C)OC(c2ccccc2O)C1 (stereo not shown) | -8.14
91 | O=C(Nc1ccc(Cl)cc1C(=O)N1CCN(CCO)CC1)c1ccco1 | 3.81
92 | COc1ccccc1CNCc1c(C(=O)O)c(C)n(Cc2c(F)cccc2Cl)c1C | -3.67
93 | CC1CCCC(C)N1CCNC(=O)C1CCN(S(=O)(=O)N2CCC3(CC2)OCCO3)CC1 (stereo not shown) | 2.18
94 | CC(C)CCN1CC(C(=O)NCc2cccnc2)CC1=O (stereo not shown) | -3.58
95 | CCCN1CCC(NCc2cccc(F)c2)CC1 | -3.8
96 | CC1CCCCC1NC(=O)C1CCCN(S(=O)(=O)c2c[nH]cn2)C1 (stereo not shown) | 2.93
97 | Cc1cc(C)n2cc(COc3ccc(Cl)cc3C)nc2n1 | -7.45
98 | COCCCNC(=O)CSc1nc(NCCc2ccccc2)c2ccccc2n1 | 1.24
99 | CCOc1ccc2nc(NC(=O)c3ccc([N+](=O)[O-])c(C)c3)sc2c1 | 4.6
100 | CCC(Sc1nc(=O)cc(N)n1CCc1ccccc1)C(=O)Nc1nc(-c2ccccc2)cs1 (stereo not shown) | 0.9
